{"source": "PubChem BioAssay AID624417", "about": "(National Center for Advancing Translational Sciences (NCATS), 2012)", "note": "In all, about 410,000 compounds went through this assay and about 6,400 (1.6%) were called active. This list was built around the results that the source calls inconclusive (neither active nor inactive); the mix of calls is not that of the screen. The call rests on the fitted dose curve; in most records, active means well fitted inhibition curve with a large enough effect; inconclusive means small, poorly fitted or top-dose-only effect; inactive means no such curve, though single readings can be large or run the other way. No potency is given beside an inconclusive call; the fits are too rough. On the % scale 0 is the no-effect control and ±100 the full control effect; potency means the concentration at half of the fitted maximal effect; tags describe the fitted curve by direction and shape.", "data": [{"biological_target": "Glucagon-like peptide 1 receptor (Homo sapiens) (UniProt P43220)", "sequence (P43220 whole entry, looked up)": "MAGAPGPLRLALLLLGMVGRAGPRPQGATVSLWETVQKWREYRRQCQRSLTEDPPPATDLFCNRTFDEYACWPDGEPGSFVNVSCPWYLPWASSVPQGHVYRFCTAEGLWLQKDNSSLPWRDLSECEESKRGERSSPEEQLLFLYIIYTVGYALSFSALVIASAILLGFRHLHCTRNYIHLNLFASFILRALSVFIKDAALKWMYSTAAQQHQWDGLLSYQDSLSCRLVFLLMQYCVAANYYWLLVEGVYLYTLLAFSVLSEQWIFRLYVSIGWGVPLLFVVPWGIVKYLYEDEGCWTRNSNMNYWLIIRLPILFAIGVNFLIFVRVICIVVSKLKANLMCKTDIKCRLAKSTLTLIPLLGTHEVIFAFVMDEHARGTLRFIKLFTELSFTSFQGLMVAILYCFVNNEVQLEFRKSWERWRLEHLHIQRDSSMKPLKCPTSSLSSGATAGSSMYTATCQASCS", "test": "qHTS of GLP-1 Receptor Inverse Agonists (Inhibition Mode); further: nearly all actives have a fitted effect of over 55% in size", "details": "HEK293 GLP-1R CRE-luciferase, luminescence, 24 h, GLP-1R form is constitutively active; activity change, negative = inhibition: at 38.3 µM (top of the series) unless noted", "method_in_brief": "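Cells are plated, allowed 12 hours at 37 deg C, then treated with compounds for 24 hr before luciferase detection reagent is added and luminescence is read after 12 min at room temperature. The HEK293 line carries constitutively active GLP-1R with a cAMP-responsive reporter.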", "values": [{"smiles": "CCCCC(c1nnnn1CC1CCCO1)N1CCN(c2cccc(C)c2C)CC1", "note": "(configuration not stated)", "Potency": "inconclusive [inhibitor, partial curve, poor fit]"}, {"smiles": "O=c1cc(Cl)nc2ccccn12", "activity change, negative = inhibition": "inactive: 8.61%"}, {"smiles": "COC(=O)COc1ccc2occ(C(C)=O)c2c1", "activity change, negative = inhibition": "inactive: 0%"}, {"smiles": "CCOC(=O)c1cc2c3ccccc3n(CC)c2nc1N", "activity change, negative = inhibition": "inactive: 0%"}, {"smiles": "Cc1ccc(CNC(=O)C2CC(c3cc(C(F)(F)F)cc(C(F)(F)F)c3)=NO2)o1", "note": "(configuration not stated)", "Potency": "inconclusive [inhibitor, single point]"}, {"smiles": "CCOc1ccc2nc(N3CCCC(C(=O)Nc4cc(Cl)c(OC)cc4OC)C3)sc2c1", "note": "(configuration not stated)", "activity change, negative = inhibition": "inactive: 11.2%"}, {"smiles": "COc1ccc(-c2[nH]c(-c3ccc(F)cc3)nc2SCC(=O)NC2CCCC2)cc1", "Potency": "active: 7.94 µM"}, {"smiles": "C=CCC1Cc2c(cccc2[N+](=O)[O-])C(CC=C)N1", "note": "(configuration not stated)", "activity change, negative = inhibition": "inactive: 4.09% [at 0.307 µM]"}, {"smiles": "CCOC(=O)C1CCN(C(=O)Nc2ccc(NC(=O)C3CCN(C(=O)OCC)CC3)cc2)CC1", "activity change, negative = inhibition": "inactive: 25.2%"}, {"smiles": "Cc1ccc(-n2c(CCc3ccccc3)nnc2SCC(=O)NCc2ccccc2)cc1C", "Potency": "inconclusive [inhibitor, single point]"}, {"smiles": "O=c1ccc(-c2ccccc2)nn1Cc1ccc(F)cc1Cl", "Potency": "inconclusive [inhibitor, single point]"}, {"smiles": "CCC(=O)N1Cc2cc(C(=O)NCc3cccc(F)c3)nc(-c3cccc(C4=CCCC4)c3)c2[C@H]1CCO", "activity change, negative = inhibition": "inactive: 16%"}, {"smiles": "Cc1cc(C(=O)CSc2nnc3ccccn23)c(C)n1-c1ccccc1", "Potency": "inconclusive [inhibitor, full curve, poor fit]"}, {"smiles": "CN1c2ccccc2Sc2cc(N)ccc21", "Potency": "inconclusive [inhibitor, partial curve, poor fit]"}, {"smiles": "Cc1ccc2cc3c(NS(=O)(=O)c4cccc5nonc45)nn(CC(C)C)c3nc2c1", "Potency": "active: 10 µM"}, {"smiles": "CCN(Cc1nc(-c2cccc(C)c2)no1)C(=O)c1ccc2c(c1)OCO2", "Potency": "inconclusive [inhibitor, partial curve, poor fit]"}, {"smiles": "Cc1ccc(-c2cnc3c(Nc4cccc(OC(F)(F)C(F)F)c4)nccn23)cc1", "Potency": "inconclusive [inhibitor, full curve, poor fit]"}, {"smiles": "CCN=c1sc(C(=O)NCCc2ccccc2)cc(=O)n1CC", "Potency": "inconclusive [inhibitor, single point]"}, {"smiles": "CCOc1ccccc1NC(=O)Nc1ccc(Cl)cc1", "Potency": "inconclusive [inhibitor, partial curve, poor fit]"}, {"smiles": "O=C(NNC(=O)C1CC2CCC1C2)c1sc2ccccc2c1Cl", "note": "(configuration not stated)", "Potency": "inconclusive [inhibitor, single point]"}, {"smiles": "Cc1cccc(-n2ncc3c(N4CCCC(C)C4)ncnc32)c1", "note": "(configuration not stated)", "Potency": "inconclusive [inhibitor, partial curve, poor fit]"}, {"smiles": "O=S1(=O)c2c(F)cccc2OC(COc2ccccc2)CN1CCc1ccc(F)cc1", "note": "(configuration not stated)", "Potency": "inconclusive [inhibitor, partial curve, poor fit]"}, {"smiles": "Cc1ccc(Cn2ccnc2SCC(=O)Nc2nc3ccccc3s2)cc1", "activity change, negative = inhibition": "inactive: 1.13%"}, {"smiles": "Cc1ccc(S(=O)(=O)Nc2ccccc2C=Nc2cccc(C)c2C)cc1", "Potency": "inconclusive [inhibitor, partial curve, poor fit]"}, {"smiles": "Cc1ccccc1P(=O)(c1ccccc1)c1ccccc1C", "Potency": "inconclusive [inhibitor, single point]"}, {"smiles": "Cc1cccc(OCCCCCn2ccnc2)c1", "activity change, negative = inhibition": "inactive: 1.85%"}, {"smiles": "COc1ccc(CN(C)CC2CCCN(CCc3ccc(F)cc3)C2)cc1OC", "note": "(configuration not stated)", "Potency": "active: 11.2 µM"}, {"smiles": "C[C@H]1CCCCO[C@@H](CN(C)C(=O)NC2CCCCC2)[C@@H](C)CN([C@@H](C)CO)C(=O)c2cc(NC(=O)Cc3ccccc3)ccc2O1", "Potency": "inconclusive [inhibitor, single point]"}, {"smiles": "O=C(Nc1cccc(CNCCc2c[nH]c3ccccc23)c1)c1ccccc1Cl", "Potency": "inconclusive [inhibitor, single point]"}, {"smiles": "CCCCn1c(N)c(N(CCC(C)C)C(=O)C2CC(=O)N(c3ccc4c(c3)OCCO4)C2)c(=O)[nH]c1=O", "note": "(configuration not stated)", "activity change, negative = inhibition": "inactive: -0.969%"}, {"smiles": "CCC1CN(S(=O)(=O)c2cc(-c3onc(C)c3C)ccc2C)c2cc(Cl)ccc2O1", "note": "(configuration not stated)", "Potency": "inconclusive [inhibitor, single point]"}, {"smiles": "CCNS(=O)(=O)c1ccc(CCC(=O)NCc2ccccc2)cc1", "activity change, negative = inhibition": "inactive: 2.02%"}, {"smiles": "N#Cc1ccsc1NC(=O)CSc1ncnc2ccccc12", "Potency": "inconclusive [inhibitor, single point]"}, {"smiles": "Clc1ccc(CN2C3=NCCCN3c3ccccc32)cc1Cl", "Potency": "active: 11.2 µM"}, {"smiles": "CCn1ccnc1CN(C)Cc1cn(-c2ccc(C)cc2)nc1-c1cccc(C)c1", "Potency": "inconclusive [inhibitor, partial curve, poor fit]"}, {"smiles": "O=C(Cc1c(Sc2ccccc2)c2ccccc2n1Cc1ccccc1)NCCO", "Potency": "inconclusive [inhibitor, single point]"}, {"smiles": "COc1cc2c(cc1OC)CN(Cc1ccc(C)cc1)CC2", "activity change, negative = inhibition": "inactive: -19%"}, {"smiles": "CC(C)N(Cc1cnn(C)c1)Cc1nc(Cc2ccccc2Cl)no1", "Potency": "inconclusive [inhibitor, partial curve, poor fit]"}, {"smiles": "Cc1cccc(NC(=O)CN2C(=O)c3cccc4cccc2c34)c1C", "activity change, negative = inhibition": "inactive: 6.42%"}, {"smiles": "O=C1CC(c2ccccc2)=NN1c1nc(-c2ccccc2)cs1", "activity change, negative = inhibition": "inactive: 3.66%"}, {"smiles": "CCCN1CCN(c2ncnc3sc(C(=O)Nc4c(C)cc(C)cc4C)c(C)c23)CC1", "activity change, negative = inhibition": "inactive: -6.89%"}, {"smiles": "COc1ccc(Nc2oc(COc3ccc(C)cc3)nc2C#N)cc1", "Potency": "inconclusive [inhibitor, full curve, poor fit]"}, {"smiles": "Cc1ccc(S(=O)(=O)c2c(C)nn(C(C)(C)C)c2OC(=O)c2ccco2)cc1", "Potency": "inconclusive [inhibitor, partial curve, poor fit]"}, {"smiles": "C[C@@H]1CN([C@H](C)CO)C(=O)CCCn2cc(nn2)CO[C@H]1CN(C)S(=O)(=O)c1ccc(-c2ccccc2)cc1", "activity change, negative = inhibition": "inactive: 32.7%"}, {"smiles": "CC(=O)Nc1cccc(-c2ccnc3c2CC(C)(C(=O)NCc2ccccc2)O3)c1", "note": "(configuration not stated)", "Potency": "inconclusive [inhibitor, full curve, poor fit]"}, {"smiles": "COc1cccc(OCCSc2nc(N)cc(N)n2)c1", "activity change, negative = inhibition": "inactive: 31.2%"}, {"smiles": "C=CCC1(CC=C)CCCN1C(=O)c1cc(COc2ccccc2SC)on1", "Potency": "inconclusive [inhibitor, full curve, poor fit]"}, {"smiles": "COc1ccc(S(=O)(=O)N2CCCCC2)cc1NC(=S)Nc1cccc(Cl)c1C", "Potency": "inconclusive [inhibitor, partial curve, poor fit]"}, {"smiles": "Cc1cc(O)c2c(CN3CCN(Cc4ccccc4)CC3)cc(=O)oc2c1", "Potency": "inconclusive [inhibitor, single point]"}, {"smiles": "CCCc1cc(N2CCCC(C(=O)Nc3c(OC)cccc3OC)C2)n2ncnc2n1", "note": "(configuration not stated)", "activity change, negative = inhibition": "inactive: 0.251%"}, {"smiles": "Cc1c(/C=N/NC(=O)c2cccs2)c2ccccc2n1Cc1ccccc1Cl", "Potency": "inconclusive [inhibitor, full curve, poor fit]"}, {"smiles": "COc1ccc(C(C(=O)NC(C)(C)C)n2c(=O)c(-c3cc4ccccc4[nH]3)nc3ccccc32)cc1", "note": "(configuration not stated)", "Potency": "active: 10 µM"}, {"smiles": "O=C(c1ccncc1)N(c1ccc2oc3c(c2c1)CCCC3)S(=O)(=O)c1ccc(F)cc1", "Potency": "inconclusive [inhibitor, partial curve, poor fit]"}, {"smiles": "Cc1cc(C)cc(NC(=O)CSc2nc3ccccc3nc2N2CCCCC2)c1", "Potency": "inconclusive [inhibitor, full curve, poor fit]"}, {"smiles": "Cc1cc(OCC(=O)N(C)Cc2ccccc2)cc(C)c1Cl", "Potency": "inconclusive [inhibitor, single point]"}, {"smiles": "O=C(NCC1CCCO1)c1c(O)c2cccc3c2n(c1=O)CCC3", "note": "(configuration not stated)", "Potency": "inconclusive [inhibitor, full curve, poor fit]"}, {"smiles": "CN(CC(=O)Nc1ccc(Cl)cc1)C(=O)c1ccc(N2CCCC2=O)cc1", "Potency": "inconclusive [inhibitor, single point]"}, {"smiles": "CCCS(=O)(=O)NC(=O)C1(C)CCN(C(=O)c2ccc(OC)cc2)C1", "note": "(configuration not stated)", "activity change, negative = inhibition": "inactive: 31.3%"}, {"smiles": "CN(c1cccc(NC(=O)CN(c2ccc(Cl)c(Cl)c2)S(=O)(=O)c2ccccc2)c1)S(C)(=O)=O", "Potency": "inconclusive [inhibitor, full curve, poor fit]"}, {"smiles": "CC(=O)c1cccc(-c2ccnc3c2CC(C(=O)Nc2cccc(Oc4ccccc4)c2)O3)c1", "note": "(configuration not stated)", "Potency": "inconclusive [inhibitor, partial curve, poor fit]"}, {"smiles": "Cc1cc(C)cc(-n2c(C)nc3cc(C(=O)NCc4ccc(F)cc4)ccc32)c1", "Potency": "inconclusive [inhibitor, partial curve]"}, {"smiles": "COc1ccc(Cl)cc1NC(=O)C(=O)N/N=C/c1cc(C)n(-c2ccc(C)cc2)c1C", "Potency": "inconclusive [inhibitor, partial curve]"}, {"smiles": "O=C(Nc1ccc(Br)cc1)c1cc(-c2ccncc2)nc2ccccc12", "Potency": "inconclusive [inhibitor, partial curve, poor fit]"}, {"smiles": "COc1ccc(Cl)cc1NC(=O)CN(C)C(=O)c1ccc(COc2ccccc2)cc1", "Potency": "inconclusive [inhibitor, partial curve, poor fit]"}, {"smiles": "COc1ccc(N/N=C(\\C#N)C(=N)SCc2ccccc2)cc1", "Potency": "active: 0.282 µM"}, {"smiles": "Cc1nn(-c2ccccc2)c(C)c1C(=O)OC(C)C(=O)NC1CCCCC1", "note": "(configuration not stated)", "Potency": "inconclusive [inhibitor, single point]"}, {"smiles": "CC1CCCN(c2nc3nonc3nc2N2CCCC(C)C2)C1", "note": "(configuration not stated)", "Potency": "inconclusive [inhibitor, single point]"}]}]}
